Reference: PubChem BioAssay (Tox21)
This list was built around the results that the source calls inconclusive (neither active nor inactive); the mix of calls is not that of the screen. Potencies of inconclusive entries are left out as doubtful fits. Calls of active or inactive are those of the source. Calls follow the shape of the dose curve; as a rule, active = well fitted activation curve with a large enough effect in the signal ratio in the repeat runs (not every such curve was filed as active); inconclusive = weak or mixed curves; inactive = flat fitted curve, though single readings scatter; the % refers to the signal ratio.

experiment: p53 small molecule agonists, cell-based qHTS assay (AID 1963582); conditions: HCT-116 p53RE-bla reporter, beta-lactamase FRET ratio, 16 h; activation: at 66 µM (top of the series) unless noted
How it was run: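 Beta-lactamase reporter cells (p53RE-bla) treated with compounds for 16 h at 37 C; FRET substrate, 2 h, room temperature; fluorescence intensity.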
% is scaled to controls: 0 for no effect and ±100 for the full control effect; potency is read from the fitted curve at half-maximal effect; tags tell the direction and shape of the fitted curve or compound fluorescence and quenching.

SMILES	Potency	activation
O=C(O)c1ccccc1[N+](=O)[O-]	inactive	–
CC(C)Cc1ccc(C(C)C(=O)O)cc1 (configuration not stated)	inconclusive [rising, single point]	–
COC(=O)c1ccc(C)cc1	inconclusive [falling, partial curve, poor fit]	–
CC(C)c1ccc(C(=O)N=C(N)N)cc1S(C)(=O)=O	inconclusive [falling, single point]	–
O=C1OC(OC(=O)c2cccnc2Nc2cccc(C(F)(F)F)c2)c2ccccc21 (configuration not stated)	inactive	–
O=Cc1ccccc1[N+](=O)[O-]	–	inconclusive: 14%
COCCCN	inactive	–
O=C(O)c1cc(Cl)cc(Cl)c1	inactive	–
CC1=C(C(=O)OC(C)C)C(c2cccc([N+](=O)[O-])c2)C(C(=O)OC2CN(C(c3ccccc3)c3ccccc3)C2)=C(N)N1 (configuration not stated)	inconclusive	–
O=C(CCCCCCCCc1cccnc1)N1CCC(C=C(c2ccccc2)c2ccccc2)CC1	inconclusive [rising, partial curve]	–
O=S(=O)(Cl)c1c(Cl)cccc1Cl	inconclusive [rising, single point]	–
CCCCN=C(N)N=C(N)N	inactive	–
[O]=[Bi]	–	inactive: 6.59% [at 5.99 µM]
COCCCN1CCC(NC(=O)c2cc(Cl)c(N)c3c2OCC3)CC1	inconclusive [falling, single point]	–
O=C(O)/C=C/c1ccc(Cn2ccnc2)cc1	inactive	–
O=C(OC[C@H]1O[C@@H](OC(=O)c2cc(O)c(O)c(OC(=O)c3cc(O)c(O)c(O)c3)c2)[C@H](OC(=O)c2cc(O)c(O)c(OC(=O)c3cc(O)c(O)c(O)c3)c2)[C@@H](OC(=O)c2cc(O)c(O)c(OC(=O)c3cc(O)c(O)c(O)c3)c2)[C@@H]1OC(=O)c1cc(O)c(O)c(OC(=O)c2cc(O)c(O)c(O)c2)c1)c1cc(O)c(O)c(OC(=O)c2cc(O)c(O)c(O)c2)c1	active: 11 µM	–
Cc1c(C)c([N+](=O)[O-])c(C(C)(C)C)c([N+](=O)[O-])c1C	inconclusive [rising, partial curve]	–
C[C@H]1C[C@@H](O)CC(C)(C)C1	inactive	–
CCCCCCCCCCCC(=O)Cl	inconclusive [rising, full curve, poor fit]	–
CCCCNS(=O)(=O)c1ccc(C)cc1	inactive	–
ClC(Cl)(Br)Br	inconclusive [rising, full curve, poor fit]	–
CCCCCCCCCOC(=O)c1ccccc1C(=O)OCCCCCCCCC	inconclusive [rising, partial curve, poor fit]	–
